Data reported in the supplement of paper PMC3334620.
Over roughly 33,000 sequences, “E-score (-0.5 to 0.5)” has its median near -0.053; the highest 2% begin near 0.37. The list shows a part of the results.

molecular target: Hap1 (UniProt P0CE41); test: PBM E-score (8-mer binding enrichment) (E-score (-0.5 to 0.5)); higher = stronger / more preferred TF binding; most listed sequences are background and not binding sites; conditions: protein concentration: 200 nM; construct: GST-DNA-binding domain
UniProt P0CE41, sequence (P0CE41 whole entry, the tested form may be a part): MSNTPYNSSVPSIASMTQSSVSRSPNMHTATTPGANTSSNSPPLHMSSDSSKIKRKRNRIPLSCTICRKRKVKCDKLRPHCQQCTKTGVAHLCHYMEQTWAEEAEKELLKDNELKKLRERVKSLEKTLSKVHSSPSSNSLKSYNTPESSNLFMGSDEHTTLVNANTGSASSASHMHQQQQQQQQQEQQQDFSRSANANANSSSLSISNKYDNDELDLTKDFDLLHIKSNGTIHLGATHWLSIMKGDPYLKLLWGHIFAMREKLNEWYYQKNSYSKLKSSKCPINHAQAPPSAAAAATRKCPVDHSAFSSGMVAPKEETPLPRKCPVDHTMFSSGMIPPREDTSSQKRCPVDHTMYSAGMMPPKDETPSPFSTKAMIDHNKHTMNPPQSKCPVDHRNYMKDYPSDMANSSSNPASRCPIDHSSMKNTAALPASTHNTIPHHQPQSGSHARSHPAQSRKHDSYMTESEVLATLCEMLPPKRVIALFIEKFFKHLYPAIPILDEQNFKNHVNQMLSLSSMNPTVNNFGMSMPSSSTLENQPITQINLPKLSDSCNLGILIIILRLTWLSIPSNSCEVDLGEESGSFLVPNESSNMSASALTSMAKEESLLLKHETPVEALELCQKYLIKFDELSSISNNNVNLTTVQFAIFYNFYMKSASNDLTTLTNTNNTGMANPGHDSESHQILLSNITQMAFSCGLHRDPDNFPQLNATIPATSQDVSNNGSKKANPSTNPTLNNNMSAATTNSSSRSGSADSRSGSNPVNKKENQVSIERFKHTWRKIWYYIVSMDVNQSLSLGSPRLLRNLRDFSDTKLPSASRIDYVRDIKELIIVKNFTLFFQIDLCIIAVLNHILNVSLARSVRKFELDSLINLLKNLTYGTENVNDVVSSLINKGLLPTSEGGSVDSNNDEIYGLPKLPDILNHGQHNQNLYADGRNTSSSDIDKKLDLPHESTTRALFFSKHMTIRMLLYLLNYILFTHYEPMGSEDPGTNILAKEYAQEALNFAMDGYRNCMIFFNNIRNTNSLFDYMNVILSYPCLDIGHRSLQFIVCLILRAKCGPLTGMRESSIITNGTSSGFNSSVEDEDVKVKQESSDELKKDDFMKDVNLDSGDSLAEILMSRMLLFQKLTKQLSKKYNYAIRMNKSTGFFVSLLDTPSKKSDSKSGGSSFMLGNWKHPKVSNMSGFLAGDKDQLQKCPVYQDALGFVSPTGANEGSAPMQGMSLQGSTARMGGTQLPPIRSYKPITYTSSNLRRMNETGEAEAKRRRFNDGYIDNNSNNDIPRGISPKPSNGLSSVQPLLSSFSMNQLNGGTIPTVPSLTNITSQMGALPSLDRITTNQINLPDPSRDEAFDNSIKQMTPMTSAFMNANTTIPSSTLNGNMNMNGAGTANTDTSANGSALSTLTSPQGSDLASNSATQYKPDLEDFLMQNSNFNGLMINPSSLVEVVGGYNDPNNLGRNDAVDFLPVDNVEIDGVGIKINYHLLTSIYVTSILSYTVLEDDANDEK
Outline: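 The E-score, a modified Wilcoxon-Mann-Whitney statistic, was computed by the Universal PBM Analysis Suite for every ungapped eight-base word pooled with its reverse complement. Scans behind it were normalised with masliner after bound GST-tagged yeast transcription factors were detected with fluorescent anti-GST. The proteins, at about 100-200 nM, had been applied to universal all-10-mer Agilent arrays made double-stranded by primer extension.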

Sequence | PBM E-score
AACCAAAA | 7e-05
CGCTCCGC | 0.154
CCAGCACA | -0.11
TAGGCTAA | -0.138
GTAGTGAA | -0.0109
CCGAATAG | 0.249
CATCAGTC | 0.00317
ACCTAGGC | -0.18
ACGCAGTG | -0.295
ACCCCAAC | 0.0008
ACGTGGAT | -0.138
ATGCGAGC | -0.039
ACTCTGCT | -0.162
CCACACTC | -0.00041
GCACGTAC | -0.141
ACACTTTC | 0.105
ATACAAAA | -0.0974
GCTGTGTA | -0.116
CTCTAAGC | 0.0646
ACAAAGAC | 0.00731
CCCCCTCA | -0.332
CATAGGGA | -0.0458
ATATTTTG | 0.0391
ACTGTGTA | -0.0809
AGTTACTC | -0.105

Sequence | PBM E-score
ACGCTATA | -0.162
ATATATAA | 0.0834
AAATTGAC | 0.0406
CCTTTTAG | -0.29
CCCGTATA | 0.186
ATGTCTCA | -0.194
TTCCCGAA | 0.338
TCCTACGA | -0.165
AAGCTCTC | 0.0513
AGTGGGGA | -0.0494
ACATTATC | 0.0642
AATTCCTA | -0.159
CTAGGCAG | -0.172
CCACAACA | -0.322
ACACCGGT | 0.359
ACATGGAA | 0.147
GAGTCACA | -0.137
CGACCAGC | -0.0159
CGTTCCGA | 0.123
ACCCTACG | -0.15
AGTCATAC | -0.163
ACCGGGAT | 0.362
GCACATCC | -0.0228
GTCGCAAA | -0.117
ATCCTCTC | -0.186

Sequence | PBM E-score
GGGAGGCA | -0.0741
ACAAAGAT | -0.287
AGGCTGTA | -0.172
CGTACCCC | 0.108
ACAATATA | 0.141
CTATGCAA | -0.239
CTCCAGTA | -0.0175
CGCTCCTC | -0.0595
TAACCAGA | -0.122
ACTGCCAT | -0.163
ACGGTACC | 0.207
ATGTACAA | -0.0682
TAATTGAA | -0.0677
AGACGAAA | 0.0745
CCAGCGCC | -0.039
AATCCCAT | -0.107
CGAGATCG | 0.177
GATCCCGC | 0.136
CCGAGTCC | 0.292
AAGATGCA | -0.256
GGATACCC | 0.0762
CGCGTCCA | -0.0764
CGCCTTTC | -0.0256
ATAAATGA | -0.117
CCGGTAGG | 0.327

Sequence | PBM E-score
GCTTCTCA | -0.168
CACTCGGC | 0.374
AGTCTTTC | 0.0142
CCTCGGGA | 0.189
AACTACTC | 0.0233
AACTTTAC | 0.00268
ATGCACCA | -0.181
AAGCGAAT | 0.0788
CGGGCAAC | 0.164
GTACCACA | -0.193
CATAATAG | -0.00211
AGCTTCAT | 0.0834
CGACCCGC | 0.0885
CCATATCA | -0.146
ACGCCTGG | -0.109
GTTTTTTA | -0.00769
CTTATAAA | 0.0157
CGCAAACA | 0.0439
CCCCTTGC | -0.222
CAGTGGCC | -0.0163
CAAATAGC | -0.0282
CTCCTGTA | -0.0904
ACGACCGC | 0.245
GTCTAGTA | -0.176
ATGGCTGC | -0.119

Sequence | PBM E-score
CCTAATAC | 0.0411
ACGGAACG | 0.195
ACTAGTTA | -0.226
TCAGAAGA | -0.16
CAGAGCTG | -0.19
AATCAGAC | -0.198
CTGGGAAA | -0.116
AGTCATAA | 0.0105
GGAGAAAA | 0.229
AGATGACA | -0.241
TCATCTAA | -0.0762
CCACAACG | -0.0518
TATCCGGA | 0.428
GCCGTAAA | 0.223
CATCCACG | -0.138
CAATCGTG | -0.0221
CCGGGGCG | 0.322
GCCATGCA | -0.0565
ATTCTTTA | -0.202
GGTCGAAC | 0.0804
AAGGTCGA | 0.00769
GGTAGTAA | -0.0482
AGATTGCG | 0.156
GTATCTCA | -0.0446
GCGCGCTA | 0.0841

Sequence | PBM E-score
CACCGTCA | -0.116
ATTACCAC | -0.015
AGGAAAAT | -0.153
AATATATC | 0.26
GAAGCTTA | -0.0838
AACTGACA | -0.208
CTATGTAC | -0.211
CGGCACCA | 0.133
GAGACGGC | -0.0132
GATTAAGA | 0.052
AATACCAA | -0.0746
GGATCAGA | -0.00626
AACTAATC | 0.0717
ACGCTCCC | -0.0376
AAGCCATA | -0.223
GAACGGTC | 0.14
TCTTTTCA | -0.162
AGGAGAAA | -0.189
CTCTATGA | -0.311
AAATTGCG | 0.0986
AATAGACA | -0.131
GACCACTA | -0.0858
GTGTACAA | 0.0266
ACCGGAGT | 0.4
GGCTTTAC | 0.255

Sequence | PBM E-score
AGGTTTGG | -0.179
ACAAGTCC | 0.159
ATCTAGAT | -0.206
CAGTGCCA | -0.228
ATCAGTCA | -0.176
ATGAACTC | -0.0737
CTCTTAGC | -0.0852
GAATAACA | 0.0585
AGCGGCGC | 0.185
CGACATCA | -0.013
GGGAGCCA | -0.251
AGATAGTA | 0.0324
GCCCTTAA | 0.105
GAAGGGTC | 0.00905
ATAAGTTC | 0.303
CCCGACGG | 0.331
TATCGCCA | 0.189
CATCACAA | -0.218
TATCGACA | -0.0811
ACAAGTCT | -0.304
AGACATAT | -0.206
CACTCGTC | -0.0866
GAACTACA | 0.0417
GTGATCCA | -0.209
AAAGCCGG | 0.439

Sequence | PBM E-score
CTACTCAG | -0.295
TACGTGAA | -0.167
CTAAGGGA | -0.108
AATGCCTG | -0.209
AGCGGTCC | 0.186
AACAAGAG | -0.207
CATGCCAC | -0.108
AAAATTAA | -0.1
CTTTCACA | -0.0482
GCGGCCTA | -0.0386
GAGTGAGA | -0.0217
ATAGCCAT | -0.21
AGTTGGGA | -0.125
CTACCAGA | -0.0785
ACGACACA | -0.28
ATAGCTCG | 0.11
CTGATGAA | -0.367
AACCTGTC | -0.155
ATTCGACC | -0.0677
CGCGTTCC | 0.126
TGTAATAA | -0.121
TCACAAGA | -0.127
ATGCGTAC | -0.0502
GTTTGCGA | -0.00112
CGCCGAAC | 0.344

Sequence | PBM E-score
CGCAGCCA | -0.124
GGTCACGA | -0.128
CGGCAGAA | 0.217
TGGAACCA | -0.063
CAAGGTGA | -0.159
ATAACCGA | 0.386
GCAGTGCC | -0.0503
ATATGTCA | -0.0291
AGATTCCT | -0.194
GCCTATAC | 0.0541
CAAGTAAG | -0.197
GCATCTGA | -0.171
CAGCGAGG | -0.142
AAACGATT | -0.043
CCATTTGC | -0.116
ACGAACCA | -0.038
GACCGTCC | 0.146
AACACGTA | -0.187
AACGTAGG | -0.148
CCAAACAG | -0.269
GAGTAGAC | -0.0721
CAAAGCTC | -0.0216
GAGCGCTA | -0.0038
GCCAGGAA | -0.262
AGTGACAT | -0.142

Sequence | PBM E-score
AATTCATA | -0.164
CCAGTTAA | -0.137
GTTATCCA | 0.00074
CCATAGAC | -0.225
CTGTTTAC | -0.142
ACTCTGCC | -0.189
ACCGAGAA | 0.271
CTCCTAAC | -0.191
AATCATCA | -0.146
ACAGCAGG | -0.0219
CATGGAAA | -0.00359
GAGTGGGA | -0.0227
CCCATTAA | -0.116
CCACGCGG | 0.0658
GCTATTTA | -0.0431
GAAGCATA | -0.141
ATGACGGA | 0.195
ACGCACTG | -0.121
AAAAGACA | -0.0875
ATGTCTTG | 0.0789
AAGCGAAG | -0.0165
AGTGAATG | -0.00975
ACAATCAT | -0.0714
GCGCAAGA | 0.0177
TACGATCA | -0.221

Sequence | PBM E-score
CGTGTATA | 0.0146
ATAGCGCA | -0.1
AGGCGTCC | 0.00712
GGCGGAAC | 0.257
CATCCAGC | -0.131
CCATGGCC | -0.0324
AACAAAAG | -0.235
GAGCTAGA | -0.135
GACTCTTA | -0.0624
CCCTGAAC | -0.0914
CTCTGAGA | -0.351
AACATCAT | -0.26
AAGGCCAA | -0.0718
AAGCCCAT | -0.143
CCTATTGA | -0.189
AGACCTAT | -0.0653
CGGGTCAG | 0.291
CGCGAAAG | 0.00498
CTTACTAA | -0.086
GATGAGAC | -0.0286
CTGCCTTC | -0.204
GCTCACCC | 0.0163
ATTGCCCA | -0.202
CTGAGAAG | -0.194
GACGGAGA | 0.318

Sequence | PBM E-score
ACTAACCC | 0.00848
AGTCATCG | -0.0494
TCGTGTAA | 0.0474
AAATTAAT | -0.00464
TGACGCCA | -0.272
CGCCTATA | 0.184
GAGCCGAC | 0.179
GCCTTAGA | -0.04
CCTACACC | -0.037
CATATGGA | -0.127
ATTCATAG | -0.204
GCTTGTAC | 0.0904
CAATTGGC | -0.159
CCGGAGCA | 0.418
ACCGAACA | 0.265
TGTACAAA | -0.129
AGCTCTGC | -0.231
AGCTTGCG | -0.169
AATGTAGA | -0.101
AGAGTTAG | -0.0639
CTGTATAA | -0.232
GACATAGA | -0.135
CTCAAAAG | -0.0673
CGTATGCC | -0.0351
TACCGCCA | 0.0951

Sequence | PBM E-score
GCGCCAGA | 0.0486
TCCATTAA | 0.0772
AAAGTGCG | 0.128
GTATCCAC | -0.0484
TTAGCAAA | 0.0428
ATTGGCAG | -0.0447
CAGCAAAG | -0.158
TATCTTGA | 0.00716
ACGCTGCC | -0.00621
AAACAATA | 0.172
GTCTCGAA | -0.271
AGTCTCTC | -0.0978
GAAACCAC | -0.0824
ACGTGCAA | -0.0353
GTTACGAA | -0.0267
CAGCCCGC | 0.04
GACTAGAC | -0.274
CAAACACG | 0.0351
TGCGCTAA | -0.0418
GCCGTTCC | 0.0668
ACCTCCCG | 0.136
TATCTGCA | -0.16
AATCCGGT | 0.418
CGATGGCG | 0.135
CAGGGGAC | -0.0585

Sequence | PBM E-score
TACAAGGA | -0.0632
GGCTCCTA | -0.0347
AAATTCTT | -0.0993
CTTCACCC | 0.0942
GCTAATCC | 0.17
CACTGGGC | 0.00656
CTGTGGAA | -0.0726
CAAGATCG | 0.0451
CTGTAAGC | -0.0848
GGTGCATA | 0.0387
TTGAGAAA | -0.245
GCGGACCA | 0.31
ATGTAATA | -0.0285
CTTGAACA | -0.0064
CAAGAGCC | -0.0186
AACGTCGC | -0.0144
AAGCCGGA | 0.413
ACTCCACT | -0.222
CTGCCAGA | -0.0778
